Reference: PubChem BioAssay (NCATS)
Inconclusive means that the source gave no clear call. Such entries were picked first, then a sample of the others. A potency beside an inconclusive call is a rough fit, not a confirmed value. Activity calls are given as the source filed them. Calls follow the shape of the dose curve; as a rule, active = well fitted inhibition curve with a large enough effect; inconclusive = small, poorly fitted or top-dose-only effect; inactive = flat fitted curve, though single readings scatter.

system: WaGa; assay: qHTS assay to identify novel small-molecules to repurpose for Merkel cell carcinoma treatment (AID 1296009); settings: MCC and control cell lines, CellTiter-Glo viability, 72 h; series mostly up to 46 µM; activity change, negative = cytotoxicity: at the top concentration; also: nearly all actives have a fitted effect of over 60% in size
Procedure, shortened: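 Cell viability measured by CellTiter-Glo following 72 hr compound treatment at 37 degree celsius, with NPC and MIPE libraries tested in 8- and 11-point concentration series.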
% is scaled to controls: 0 for no effect and ±100 for the full control effect; potency is read from the fitted curve at half-maximal effect; tags tell the direction and shape of the fitted curve.

SMILES | Potency | activity change, negative = cytotoxicity
Cc1nc(Nc2n[nH]c3c2CN(C(=O)N[C@H](CN(C)C)c2ccccc2)C3(C)C)c2sccc2n1 | inconclusive: 0.0372 µM [inhibitor, full curve] | –
NS(=O)(=O)c1ccc(Nc2nc(OCC3CCCCC3)c3[nH]cnc3n2)cc1 | inconclusive: 23.5 µM [inhibitor, single point] | –
O=c1[nH]c(=O)n(C2CCCO2)cc1F (stereo unspecified) | inconclusive: 13.6 µM [inhibitor, partial curve] | –
N#CC(c1ccnc(NCCc2cccnc2)n1)c1nc2ccccc2s1 (stereo unspecified) | inconclusive: 23.5 µM [inhibitor, single point] | –
O=C(CO)N1CCC(c2[nH]nc(-c3ccc(Cl)cc3)c2-c2ccncn2)CC1 | inconclusive: 8.33 µM [inhibitor, partial curve, poor fit] | –
C[C@]12CCC3c4ccc(O)cc4CCC3C1CCC2=O (stereo partly specified) | – | inactive: -5.81%
COc1ccc2nc3cc(Cl)ccc3c(Nc3cc(CN4CCCC4)c(O)c(CN4CCCC4)c3)c2n1 | active: 18.7 µM | –
CN[C@@H](C)C(=O)N[C@H]1CCCC[C@H]2CC[C@@H](C(=O)N[C@@H](c3ccccc3)c3cn(CCCCc4ccc(CCCCn5cc([C@@H](NC(=O)[C@@H]6CC[C@@H]7CCCC[C@H](NC(=O)[C@H](C)NC)C(=O)N76)c6ccccc6)nn5)cc4)nn3)N2C1=O | inconclusive: 26.4 µM [inhibitor, single point] | –
N#CNC(=NCCCCCCOc1ccc(Cl)cc1)Nc1ccncc1 | active: 0.0033 µM | –
CC(C)n1cnc2c(NCCCCCCNC(=O)OC(C)(C)C)nc(NCCO)nc21 | inconclusive: 20.9 µM [inhibitor, partial curve, poor fit] | –
CC[C@H](CO)Nc1nc(NCc2ccccc2)c2ncn(C(C)C)c2n1 | – | inactive: -20.3%
